Positions count from the first letter of the chain named. Names and notes keep the numbering of the source. Results are given in words; binding and its absence hold for the method and conditions named. For part of these data: Binding seen in cells or lysates may run through a third protein. Some entries that bind do so weakly or less than the wild type. For part of these data: Where a sequence is shown, tags or fusion partners need not be part of it.
T1: full-length CrODA16 (CrODA16fl) (Chlamydomonas reinhardtii, UniProt Q3Y8L7 1-446)
T1 construct: ODA16, Chlamydomonas reinhardtii, full length (N-terminal domain residues 1-80, C-terminal beta-propeller residues 80-445); it may be the same protein as CrODA16-HT
T1 sequence (looked up): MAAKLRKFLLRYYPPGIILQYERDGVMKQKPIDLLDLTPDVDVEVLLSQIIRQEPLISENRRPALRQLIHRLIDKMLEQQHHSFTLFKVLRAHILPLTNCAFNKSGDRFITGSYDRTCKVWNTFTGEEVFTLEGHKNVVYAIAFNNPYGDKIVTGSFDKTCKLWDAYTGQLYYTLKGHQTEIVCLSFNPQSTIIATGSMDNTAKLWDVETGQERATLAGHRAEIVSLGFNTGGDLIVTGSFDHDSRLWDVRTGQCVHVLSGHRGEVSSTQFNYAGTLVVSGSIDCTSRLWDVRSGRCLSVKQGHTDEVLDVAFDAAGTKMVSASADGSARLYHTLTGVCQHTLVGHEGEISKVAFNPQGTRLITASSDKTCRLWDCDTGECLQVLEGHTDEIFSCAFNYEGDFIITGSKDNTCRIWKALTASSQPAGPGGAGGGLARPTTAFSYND

Protein sequences, listed by entry. Tags and fused reporters are not part of them. Lines headed by an entry give the natural chain unless they say otherwise; changes in a name come on top.
UniProt Q9NQC8: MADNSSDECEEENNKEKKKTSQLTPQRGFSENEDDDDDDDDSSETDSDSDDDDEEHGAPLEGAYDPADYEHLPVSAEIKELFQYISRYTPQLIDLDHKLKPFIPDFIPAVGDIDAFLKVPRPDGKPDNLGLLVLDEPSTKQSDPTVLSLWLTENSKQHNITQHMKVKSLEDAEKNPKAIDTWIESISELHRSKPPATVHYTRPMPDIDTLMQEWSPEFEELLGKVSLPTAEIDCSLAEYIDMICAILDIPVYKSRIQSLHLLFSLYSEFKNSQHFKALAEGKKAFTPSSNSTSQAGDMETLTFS

T2: GST-HsIFT74(1-272)/HsIFT81(1-215) complex (human) (UniProt Q96LB3+Q8WYA0)
T2 sequence 1: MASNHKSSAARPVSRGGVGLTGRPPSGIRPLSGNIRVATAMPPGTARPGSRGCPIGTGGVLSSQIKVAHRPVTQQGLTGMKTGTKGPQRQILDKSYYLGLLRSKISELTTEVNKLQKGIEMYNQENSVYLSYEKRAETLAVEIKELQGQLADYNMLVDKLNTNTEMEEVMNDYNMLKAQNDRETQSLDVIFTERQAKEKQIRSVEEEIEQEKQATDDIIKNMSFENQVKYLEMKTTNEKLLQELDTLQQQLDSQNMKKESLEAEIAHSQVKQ
T2 sequence 2: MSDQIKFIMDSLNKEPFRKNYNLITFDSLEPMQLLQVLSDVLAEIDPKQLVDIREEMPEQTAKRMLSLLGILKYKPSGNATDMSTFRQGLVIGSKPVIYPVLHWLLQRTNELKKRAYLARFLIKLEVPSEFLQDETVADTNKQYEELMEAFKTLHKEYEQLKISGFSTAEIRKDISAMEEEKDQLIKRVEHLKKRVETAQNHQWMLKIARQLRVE

T3: HsIFT46_Cr (chimeric HsIFT46 with residues 4-26 replaced by CrIFT46 residues 22-44), GFP-tagged (human | Chlamydomonas reinhardtii) (UniProt Q9NQC8+A2T2X4)
T3 sequence: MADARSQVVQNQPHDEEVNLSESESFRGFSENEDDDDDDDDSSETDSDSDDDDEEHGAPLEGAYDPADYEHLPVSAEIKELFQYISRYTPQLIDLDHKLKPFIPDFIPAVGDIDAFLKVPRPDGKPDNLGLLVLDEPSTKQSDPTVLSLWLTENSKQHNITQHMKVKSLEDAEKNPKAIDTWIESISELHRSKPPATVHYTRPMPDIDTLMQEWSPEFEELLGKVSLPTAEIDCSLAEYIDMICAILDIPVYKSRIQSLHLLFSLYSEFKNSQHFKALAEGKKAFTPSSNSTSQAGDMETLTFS

T4: hexa-His-tagged CrODA16 (CrODA16-HT) (Chlamydomonas reinhardtii, UniProt Q3Y8L7 1-446)
T4 construct: ODA16, Chlamydomonas reinhardtii; Bait on nickel resin
T4 sequence (looked up): T1 sequence (looked up)

B1: CrIFT46/56 complex (complex, UniProt A2T2X4 1-344; A8JA42 1-555)
chain 1: MDDSMDYPDRDGDDLDQFQGTARSQVVQNQPHDEEVNLSESESFAGADEPPAAPRDASLIESHDMDEGPAAPARTLSPTGYEAGKHAPGGIANSDEAPPGAYNAQEYKHLNVGEDVRELFSYIGRYKPQTVELDTRIKPFIPDYIPAVGGIDEFIKVPRPDTKPDYLGLKVLDEPAAKQSDPTVLTLQLRQLSKEAPGAKADMVGRLEHTDENKAKKIQQWIASINDIHKAKPAATVNYSKRMPEIEALMQEWPPEVETFLKTMHMPSGDVELDIKTYARLVCTLLDIPVYDDPVESLHVLFTLYLEFKNNPIFRQHMEMENKLDGMSGGGGGMMGGGADVLGL
chain 2: MFYSKSRPQHAARTNVAQAAANEKPKVPELEEFLTKRDYLGAIALLSFRRHANRNDLKNLEWLAYCYFHYGEHDKALVIYKELLQHEDPDPMFFVYSAACLYYMGMYKEAEEQALQGPKCALQTRILFHSAQRQGNDDKLMAYHGQLTDSIEDQLTLASIHYQRSHFQEATDIYKRLLLEHRDYLRSTVVYVALCYCKLDYYDVSLEILGVYLSAFPDSAIAVNLKACNHFRMYNGKAAEAELKTLAELSGGQHLDHDLIRHNLVVFRGGENALQVLPPLSDIPPEARLNLVIHHLRHHEVGEAFGLIKDMEPSTPPEFILKAVVHAMLGQVKGDPEHLKKAQQYYQLVGASASECDTIPGRQCMASCFFLLKQFEDVLVFLSSIKTYFLNDDDFNWNLGIAKAATGKYKEAEETLLQIANDKYRNEYTYTSWLARCYIMNGKARLAWERYLQLETNDESYQLLLLIANDCYKMGAFYFACKAFDVLERLDPAPEYLEGKKGAACGAFQMIVAGKEPKDLLRDVISLLRGNNSADQCEPIVAVMRKWAKNNGVKL
B2: HsODA16 (protein, UniProt Q8N136 1-415)
chain: MKLKSLLLRYYPPGIMLEYEKHGELKTKSIDLLDLGPSTDVSALVEEIQKAEPLLTASRTEQVKLLIQRLQEKLGQNSNHTFYLFKVLKAHILPLTNVALNKSGSCFITGSYDRTCKLWDTASGEELNTLEGHRNVVYAIAFNNPYGDKIATGSFDKTCKLWSVETGKCYHTFRGHTAEIVCLSFNPQSTLVATGSMDTTAKLWDIQNGEEVYTLRGHSAEIISLSFNTSGDRIITGSFDHTVVVWDADTGRKVNILIGHCAEISSASFNWDCSLILTGSMDKTCKLWDATNGKCVATLTGHDDEILDSCFDYTGKLIATASADGTARIFSAATRKCIAKLEGHEGEISKISFNPQGNHLLTGSSDKTARIWDAQTGQCLQVLEGHTDEIFSCAFNYKGNIVITGSKDNTCRIWR
B3: full-length CrODA16 (CrODA16fl) (protein, UniProt Q3Y8L7 1-446)
chain: T1 sequence (looked up)
B4: CrIFT46 D33K (protein, UniProt A2T2X4 1-344)
chain: B1 chain 1 with D33K
B5: CrIFT46_32HDEE35_AAAA (protein, UniProt A2T2X4 1-344)
chain: B1 chain 1 with H32A, D33A, E34A, E35A

Tests used:
[1] = target: T1, full-length CrODA16 (CrODA16fl); experiment: SEC; Superose 6 Increase 10/300 column; SDS-PAGE of the peaks; both purified
[2] = target: T2, GST-HsIFT74(1-272)/HsIFT81(1-215) complex (human); experiment: condition: prey 20–30 μM, bait 10 μM (general pull-down methods); pull-down; GST-tagged bait (10 μM) immobilised on GSH resin, prey 20–30 μM, 1 h 4 °C; 10 mM HEPES pH 7.5, 200 mM NaCl, 2 mM MgCl2, 1 mM DTT; eluted with 33 mM reduced glutathione, SDS-PAGE; both purified
[3] = target: T3, HsIFT46_Cr (chimeric HsIFT46 with residues 4-26 replaced by CrIFT46 residues 22-44), GFP-tagged (human | Chlamydomonas reinhardtii); experiment: pull-down; GFP-tagged HsIFT46_Cr from HEK293s cell lysate immobilised on GFP-Binder beads, purified ODA16 as prey; 200 mM NaCl; eluted with 0.1 M citric acid; only the binder purified
[4] = target: T4, hexa-His-tagged CrODA16 (CrODA16-HT); experiment: condition: prey 20–30 μM, bait 10 μM (general pull-down methods); pull-down; CrODA16-HT (10 μM) immobilised on nickel resin, one prey (20–30 μM), 1 h 4 °C; 10 mM HEPES pH 7.5, 200 mM NaCl, 2 mM MgCl2, 1 mM DTT; eluted with 500 mM imidazole, SDS-PAGE; CrArl3 nucleotide-free; both purified

Binder	binding [3]	binding [4]	also measured
B1			binding [1]: binds
B2	binds		binding [2]: no binding
B3	binds		
B4		no binding	
B5		no binding	

Source: paper PMC11879689, “Integrative in silico and biochemical analyses demonstrate direct Arl3-mediated ODA16 release from the intraflagellar transport machinery” (The Journal of Biological Chemistry, 2025)
